According to the supplement of paper PMC5919970:
“And” between values parts separate entries of the source, which are not always exact repeats. Equal values may be shown once. Where a name gives a salt, the structure may show the parent alone. Over roughly 2,000 compounds, “fractional viability relative to vehicle” has its median near 0.92; the lowest 2% begin near 0.11. This is one part of the list.

Tested on: TYKNU
Assay: fractional viability relative to vehicle; TYKNU is a high-grade serous ovarian cancer line; higher = less growth inhibition
Conditions: 72 h, genotype: OPA1 knockout (sgOPA1 #2)
How it was run: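 Drug treatment lasted 72 h, with cells grown at 37 °C in 5% CO2 in RPMI 1640 supplemented with 10% FBS. Beforehand, TYKNU control cells or their lentiCRISPRv2 knockout derivatives had been seeded at 500 cells per well into drug-stamped 384-well plates carrying a ~2100-compound library at 2 or 10 μM, in duplicate. Viability came from Cell Titer Glo luminescence, with averaged duplicate treatment wells normalised to duplicate control wells in the same plate position.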

O=c1c(O)c(-c2ccc(O)c(O)c2)oc2cc(O)cc(O)c12 [Quercetin]
fractional viability (2uM): 0.873
fractional viability (10uM): 0.927

O=c1c(O)c(-c2ccc(O)c(O)c2)oc2cc(O)cc(O)c12 [Quercetin Dihydrate]
fractional viability (2uM): 1.16
fractional viability (10uM): 0.984

COc1ccc(C2=N[C@H](c3ccc(Cl)cc3)[C@H](c3ccc(Cl)cc3)N2C(=O)N2CCNC(=O)C2)c(OC(C)C)c1 [Nutlin-3b]
fractional viability (2uM): 0.806
fractional viability (10uM): 0.737

Cc1cnc(C(=O)O)c[n+]1[O-] [Acipimox]
fractional viability (2uM): 1.12
fractional viability (10uM): 1

O=C(c1cncc(Br)c1)N1CCC(N2CCCC2)CC1
fractional viability (2uM): 0.797
fractional viability (10uM): 0.838

O=C(Nc1ccc([N+](=O)[O-])cc1O)Nc1ccccc1Br
fractional viability (2uM): 0.491
fractional viability (10uM): 0.313

CCN(CC)CCOc1ccc(C(=C(Cl)c2ccccc2)c2ccccc2)cc1 [Clomifene citrate]
fractional viability (2uM): 0.952
fractional viability (10uM): 0.564

CCCCNc1ccc(C(=O)OCCN(C)C)cc1 [Tetracaine HCl]
fractional viability (2uM): 1.01
fractional viability (10uM): 1.08

CCCCCOC(=O)Nc1nc(=O)n([C@@H]2O[C@H](C)[C@@H](O)[C@H]2O)cc1F [Capecitabine]
fractional viability (2uM): 1.01
fractional viability (10uM): 0.906

COc1cc2ncnc(Oc3ccc(CC(=O)Nc4cnn(C(C)C)c4)cc3)c2cc1OC
fractional viability (2uM): 0.949
fractional viability (10uM): 0.942

CN1CCC(=C2c3ccccc3CCc3sccc32)CC1 [Pizotifen Malate]
fractional viability (2uM): 1.05
fractional viability (10uM): 0.984

COc1ncc(-c2ccc3nccc(-c4ccnnc4)c3c2)cc1NS(=O)(=O)c1ccc(F)cc1F
fractional viability (2uM): 0.354
fractional viability (10uM): 0.0636

Cc1cc(-c2ncc(CC(=O)Nc3ccc(-c4cnccn4)cn3)cc2C)ccn1
fractional viability (2uM): 0.961
fractional viability (10uM): 0.859

Cc1cnc(C(=O)NCCc2ccc(S(=O)(=O)NC(=O)NC3CCCCC3)cc2)cn1 [Glipizide]
fractional viability (2uM): 0.88
fractional viability (10uM): 0.973

CN1CCC(NC(=O)c2cc(-c3c(O)cc(O)cc3Oc3ccc([N+](=O)[O-])cc3)on2)CC1
fractional viability (2uM): 0.555
fractional viability (10uM): 0.609

c1cc(-c2cnn3cc(-c4ccc(OCCN5CCCCC5)cc4)cnc23)ccn1 [Dorsomorphin (Compound C)]
fractional viability (2uM): 1.37
fractional viability (10uM): 0.744

O=C1[C@H](CC[C@H](O)c2ccc(F)cc2)[C@@H](c2ccc(O)cc2)N1c1ccc(F)cc1 [Ezetimibe]
fractional viability (2uM): 0.948
fractional viability (10uM): 1.02

Nc1ncnc2c1C(=O)N(c1ccc([C@H]3CC[C@H](CC(=O)O)CC3)cc1)CCO2
fractional viability (2uM): 0.723
fractional viability (10uM): 0.773

Oc1cc(O)c(Cl)cn1 [Gimeracil]
fractional viability (2uM): 0.856
fractional viability (10uM): 1.01

COc1ccc2cc(OCC3(C(=O)O)CN(C(=O)c4ccc(F)cc4)C3)ccc2c1
fractional viability (2uM): 1.03
fractional viability (10uM): 0.994

COC(=O)C1=C(C)NC(C)=C(C(=O)OCC(C)C)C1c1ccccc1[N+](=O)[O-] (centres undefined) [Nisoldipine]
fractional viability (2uM): 0.737
fractional viability (10uM): 0.885

CC[C@@H]1/C=C(\C)C[C@H](C)C[C@H](OC)[C@H]2O[C@@](O)(C(=O)C(=O)N3CCCC[C@H]3C(=O)O[C@H](/C(C)=C/[C@@H]3CC[C@@H](O)[C@H](OC)C3)[C@H](C)[C@@H](O)CC1=O)[C@H](C)C[C@@H]2OC [Ascomycin (FK520)]
fractional viability (2uM): 0.751
fractional viability (10uM): 0.644

CC1(C)CNc2cc(NC(=O)c3cccnc3NCc3ccncc3)ccc21 [Motesanib Diphosphate (AMG-706)]
fractional viability (2uM): 1.21
fractional viability (10uM): 0.923

Cc1nc(C#Cc2ccnc(Cl)c2)c(C)n1-c1ccc(OC(F)(F)F)cc1
fractional viability (2uM): 1.08
fractional viability (10uM): 0.815

CN(C)c1cccc(-c2c3c(=O)n(-c4ccccc4Cl)[nH]c3cc(=O)n2C)c1
fractional viability (2uM): 1.05
fractional viability (10uM): 1.48

COC(=O)C1=C(C)NC(C)=C(C(=O)OCCN(C)Cc2ccccc2)C1c1cccc([N+](=O)[O-])c1 (centres undefined) [Nicardipine HCl]
fractional viability (2uM): 0.927
fractional viability (10uM): 0.678

OC[C@H]1O[C@@H](c2ccc(Cl)c(Cc3ccc(O[C@H]4CCOC4)cc3)c2)[C@H](O)[C@@H](O)[C@@H]1O
fractional viability (2uM): 0.787
fractional viability (10uM): 0.736

Cc1cc(-c2ccc(CC(=O)Nc3ccc(-c4cccnc4)cc3)cc2)ccn1
fractional viability (2uM): 0.912
fractional viability (10uM): 1.02

COc1ccc(C2CC(c3ccccc3)=NN2c2ccc(S(N)(=O)=O)cc2)cc1 (centres undefined)
fractional viability (2uM): 0.822
fractional viability (10uM): 0.932

COCCOc1ccc2c(c1)ncn2-c1ccc2cccc(N3CCC(N)CC3)c2n1
fractional viability (2uM): 0.873
fractional viability (10uM): 0.323

Cc1cc(Nc2cc(N3CCN(C)CC3)nc(/C=C/c3ccccc3)n2)n[nH]1
fractional viability (2uM): 0.844
fractional viability (10uM): 0.57

CNCc1cc(-c2ccccc2F)n(S(=O)(=O)c2cccnc2)c1
fractional viability (2uM): 0.781
fractional viability (10uM): 0.821

Cc1nn(C)c2c1C(c1ccc(C(F)(F)F)cc1)C(C#N)=C(N)O2 (centres undefined)
fractional viability (2uM): 0.998
fractional viability (10uM): 0.98

O=C1C(O)=C([C@H]2CC[C@H](c3ccc(Cl)cc3)CC2)C(=O)c2ccccc21 [Atovaquone]
fractional viability (2uM): 1.08
fractional viability (10uM): 0.837

Cc1ccccc1C(OCCN(C)C)c1ccccc1 (centres undefined) [Orphenadrine Citrate]
fractional viability (2uM): 0.981
fractional viability (10uM): 1.02

O=C1CCc2ccc(OCCCCN3CCN(c4cccc(Cl)c4Cl)CC3)cc2N1 [Aripiprazole]
fractional viability (2uM): 1.04
fractional viability (10uM): 0.759

CCCCCCCCCCCC1=C(O)C(=O)C=C(O)C1=O [Embelin]
fractional viability (2uM): 1.12
fractional viability (10uM): 0.812

COc1c2ccoc2cc2oc(=O)ccc12 [Bergapten]
fractional viability (2uM): 0.927
fractional viability (10uM): 0.906

CCc1ccc(OCc2ccccc2C(=O)Nc2ccc3nc(C)cc(N)c3c2)cc1
fractional viability (2uM): 0.16
fractional viability (10uM): 0.0251

CN(C)CCc1c[nH]c2ccc(CS(=O)(=O)N3CCCC3)cc12 [Almotriptan Malate]
fractional viability (2uM): 0.967
fractional viability (10uM): 1.11

Cn1nc(C(C)(C)C)cc1C(=O)N[C@@H](Cc1cccc(Cl)c1)C(=O)NCC#N [Cathepsin Inhibitor 1]
fractional viability (2uM): 0.947
fractional viability (10uM): 0.991

CN(c1ncccc1CNc1nc(Nc2ccc3c(c2)CC(=O)N3)ncc1C(F)(F)F)S(C)(=O)=O
fractional viability (2uM): 0.837 and 0.713 and 0.812
fractional viability (10uM): 0.605 and 0.474 and 0.584

O=C(Nc1ccccc1)N1CCN(c2nc(-c3ccccc3)ns2)CC1
fractional viability (2uM): 0.909
fractional viability (10uM): 1.02

Clc1cccc(CN=C2Nc3ccccc3NC23CCNCC3)c1 [Liproxstatin-1]
fractional viability (2uM): 0.816
fractional viability (10uM): 0.729

CC(CNC(=O)c1cccnc1)NC(=O)c1cccnc1 (centres undefined) [Nicaraven]
fractional viability (2uM): 0.886
fractional viability (10uM): 0.93

CN1CCCN(C(=O)c2cccc(-c3ccc(/C=C4/C(=O)Nc5ccc(Cl)cc54)o3)c2)CC1
fractional viability (2uM): 0.132
fractional viability (10uM): 0.0251

CCCCCCCCOc1ccccc1C(=O)Nc1ccc(C(=O)OCC[N+](C)(CC)CC)cc1 [Otilonium Bromide]
fractional viability (2uM): 0.988
fractional viability (10uM): 0.817

CN1CCN2c3ccccc3Cc3ccccc3C2C1 (centres undefined) [Mianserin HCl]
fractional viability (2uM): 1.26
fractional viability (10uM): 1

CCCCc1ncc(/C=C(\Cc2cccs2)C(=O)O)n1Cc1ccc(C(=O)O)cc1 [Eprosartan Mesylate]
fractional viability (2uM): 0.994
fractional viability (10uM): 0.884

CCOC(=O)C1=C(C)NC(C)=C(C(=O)OC)C1c1cccc(Cl)c1Cl (centres undefined) [Felodipine]
fractional viability (2uM): 1.04
fractional viability (10uM): 0.865

CN1CCN(Cc2ccc(-c3cnc4[nH]cc(-c5ccc6[nH]ccc6c5)c4c3)cc2)CC1
fractional viability (2uM): 0.872
fractional viability (10uM): 1.1

CC1(C)CC[C@]2(NC(=O)C(C)(F)F)CC[C@]3(C)[C@H](C(=O)C=C4[C@@]5(C)C=C(C#N)C(=O)C(C)(C)[C@@H]5CC[C@]43C)[C@@H]2C1 [Omaveloxolone (RTA-408)]
fractional viability (2uM): 0.166
fractional viability (10uM): 0.0407

CCOC(=O)c1ccc(NC2CCCCC2)c(N)c1 [Ferrostatin-1 (Fer-1)]
fractional viability (2uM): 1.03
fractional viability (10uM): 0.934

O=C1c2c(O)ccc(O)c2C(=O)c2c(NCCNCCO)ccc(NCCNCCO)c21 [Mitoxantrone]
fractional viability (2uM): 0.223
fractional viability (10uM): 0.317

O=C1c2c(O)ccc(O)c2C(=O)c2c(NCCNCCO)ccc(NCCNCCO)c21 [Mitoxantrone HCl]
fractional viability (2uM): 0.239
fractional viability (10uM): 0.185

COc1ccc2[nH]cc(/C=C3\C(=O)Nc4ccc(NC(=O)CCN5CCCCC5)cc43)c2c1
fractional viability (2uM): 0.938
fractional viability (10uM): 0.924

O=C(NC(Cc1cc(=O)[nH]c2ccccc12)C(=O)O)c1ccc(Cl)cc1 (centres undefined) [Rebamipide]
fractional viability (2uM): 1.11
fractional viability (10uM): 1.01

CC(C)c1cc(C(C)C)c(CC(=O)NS(=O)(=O)Oc2c(C(C)C)cccc2C(C)C)c(C(C)C)c1 [Avasimibe]
fractional viability (2uM): 0.949
fractional viability (10uM): 0.805

O=C(NNc1nc2cc(F)ccc2n2cccc12)c1cnccn1
fractional viability (2uM): 0.576
fractional viability (10uM): 0.643

COC(=O)/C=C/C(=O)OC [Dimethyl Fumarate]
fractional viability (2uM): 1.19
fractional viability (10uM): 0.852

OCC(CO)N[C@H]1C[C@](O)(CO)[C@@H](O)[C@H](O)[C@H]1O [Voglibose]
fractional viability (2uM): 0.882
fractional viability (10uM): 0.955

CCc1ccc(/C=C2/SC(=S)NC2=O)cc1
fractional viability (2uM): 0.944
fractional viability (10uM): 0.918

Cc1ccc(Nc2nccc(N(C)c3ccc4c(C)n(C)nc4c3)n2)cc1S(N)(=O)=O [Pazopanib]
fractional viability (2uM): 1.14
fractional viability (10uM): 0.605

CCCCC(=O)N(Cc1ccc(-c2ccccc2-c2nnn[nH]2)cc1)[C@H](C(=O)O)C(C)C [Valsartan]
fractional viability (2uM): 1.05
fractional viability (10uM): 1.01

COc1cc(Nc2ncc3c(n2)-c2ccc(Cl)cc2C(c2c(F)cccc2OC)=NC3)ccc1C(=O)O [Alisertib (MLN8237)]
fractional viability (2uM): 0.867
fractional viability (10uM): 0.77

COc1cccc(-c2cc(F)ccc2C2Cc3nc(N)nc(C)c3C(=O)N2)n1 (centres undefined)
fractional viability (2uM): 0.471
fractional viability (10uM): 0.534

O=c1cc(N2CCOCC2)oc2c(-c3ccccc3)cccc12
fractional viability (2uM): 1.18
fractional viability (10uM): 1.11

Cc1cnc(NC(=O)Nc2cc(Br)c(C)cc2OC[C@@H]2CNCCO2)cn1
fractional viability (2uM): 0.775
fractional viability (10uM): 0.615

Nc1cc(C(F)(F)F)c(-c2cc(N3CCOCC3)nc(N3CCOCC3)n2)cn1 [BKM120 (NVP-BKM120, Buparlisib)]
fractional viability (2uM): 0.487
fractional viability (10uM): 0.247

Cc1c(C(=O)Nc2ccc(N3C[C@@H](C)O[C@@H](C)C3)nc2)cccc1-c1ccc(OC(F)(F)F)cc1 [LDE225 (NVP-LDE225,Erismodegib)]
fractional viability (2uM): 1.06
fractional viability (10uM): 0.917

Cc1ccc(Sc2cncc3sc(C(N)=O)cc23)cc1
fractional viability (2uM): 1.04
fractional viability (10uM): 0.928

O=C(O)c1ccccc1Nc1cccc(C(F)(F)F)c1 [Flufenamic acid]
fractional viability (2uM): 0.889
fractional viability (10uM): 0.909
